Laboratory results as given in PMC11995724, “Antibiotic target discovery by integrated phenotypic and activity-based profiling of electrophilic fragments” (Cell chemical biology, 2025).
About 75 (2%) of roughly 3,200 compounds showed an effect of 50% or more. The list shows a part of the results.

Tested on: T1, S. aureus MSSA476
T1 construct: MSSA476
Set-up: species or system S. aureus MSSA476 (TSB) or V. cholerae SAD30 (LB); 384-well bacterial growth screen at 25 uM, OD600 relative to DMSO control
Conditions: relative growth, OD600, TSB; 25 µM; inhibitor

Row | SMILES | % of control remaining [%]
1 | C=CC(=O)N1CCC(C(=O)N(C)CCn2cccn2)CC1 [2-J12, N-methyl-1-(prop-2-enoyl)-N-[2-(1H-pyrazol-1-yl)ethyl]piperidine-4-carboxamide] | 85.9878
2 | CC(Cl)C(=O)NC(c1cc(Cl)ccc1Cl)C1CCOC1 (stereo not shown) [7-K21, 2-chloro-N-[(2,5-dichlorophenyl)(oxolan-3-yl)methyl]propanamide] | 91.9937
3 | CC(Cl)C(=O)NC1CCN(c2ccccc2C(F)(F)F)C1 (stereo not shown) [7-C17, 2-chloro-N-{1-[2-(trifluoromethyl)phenyl]pyrrolidin-3-yl}propanamide] | 102.983
4 | CC(=O)N(Cc1ncc(C(C)C)o1)C1CCN(C(=O)C(C)Cl)C1 (stereo not shown) [6-J07, N-[1-(2-chloropropanoyl)pyrrolidin-3-yl]-N-{[5-(propan-2-yl)-1,3-oxazol-2-yl]methyl}acetamide] | 96.6341
5 | COc1ccc(C2=NN(C(=O)CCl)C(c3cccc(C)c3)C2)cc1 (stereo not shown) [4-G20, 2-chloro-1-[3-(4-methoxyphenyl)-5-(3-methylphenyl)-4,5-dihydro-1H-pyrazol-1-yl]ethan-1-one] | 10.2906
6 | CC(Cl)C(=O)Nc1ccc(F)c(F)c1 (stereo not shown) [6-P08, 2-chloro-N-(3,4-difluorophenyl)propanamide] | 101.415
7 | CCN(Cc1ccc2c(c1)OCO2)C(=O)CCl [5-L07, N-[(1,3-dioxaindan-5-yl)methyl]-2-chloro-N-ethylacetamide] | 105.282
8 | C=CC(=O)NC(C)(C)c1noc(CCC)n1 [1-N10, N-[2-(5-propyl-1,2,4-oxadiazol-3-yl)propan-2-yl]prop-2-enamide] | 115.341
9 | CC(Cl)C(=O)NC1CCCN(c2cnn(C)c2)C1 (stereo not shown) [7-K19, 2-chloro-N-[1-(1-methyl-1H-pyrazol-4-yl)piperidin-3-yl]propanamide] | 94.5055
10 | O=C(CCl)Nc1nc2ccc([N+](=O)[O-])cc2s1 [4-H08, 2-chloro-N-(6-nitro-1,3-benzothiazol-2-yl)acetamide] | 90.3287
11 | N#CC(=Cc1c(F)cccc1F)C(=O)NCCc1ccccc1 [8-D18, 2-cyano-3-(2,6-difluorophenyl)-N-(2-phenylethyl)prop-2-enamide] | 118.174
12 | Cc1ccc(NC(=O)C(C#N)=Cc2cccc(Cl)c2Cl)cc1 [8-D06, 2-cyano-3-(2,3-dichlorophenyl)-N-(4-methylphenyl)prop-2-enamide] | 98.2573
13 | O=C(CCl)NCc1ccn(Cc2ccccc2)n1 [7-H10, N-[(1-benzyl-1H-pyrazol-3-yl)methyl]-2-chloroacetamide] | 122.135
14 | Cc1ccsc1-c1nnc(NC(=O)CCl)o1 [6-K03, 2-chloro-N-[5-(3-methylthiophen-2-yl)-1,3,4-oxadiazol-2-yl]acetamide] | 103.805
15 | C=CC(=O)N1CCCN(S(N)(=O)=O)CC1 [3-K10, 4-(prop-2-enoyl)-1,4-diazepane-1-sulfonamide] | 97.8668
16 | CC(Cl)C(=O)N1CCCC1c1cccc(N(C)C)c1 (stereo not shown) [7-A22, 2-chloro-1-{2-[3-(dimethylamino)phenyl]pyrrolidin-1-yl}propan-1-one] | 90.7378
17 | CC(Cl)C(=O)N(C)Cc1ncc(C2CC2)o1 (stereo not shown) [5-B22, 2-chloro-N-[(5-cyclopropyl-1,3-oxazol-2-yl)methyl]-N-methylpropanamide] | 96.9035
18 | COc1cccc(NC(=O)C(C#N)=Cc2c[nH]c(-c3ccccc3)n2)c1 [9-C20, 2-cyano-N-(3-methoxyphenyl)-3-(2-phenyl-1H-imidazol-4-yl)prop-2-enamide] | 78.8015
19 | N#CC(=Cc1ccc(-c2cccc([N+](=O)[O-])c2)s1)C(=O)NC1CC1 [9-G18, 2-cyano-N-cyclopropyl-3-[5-(3-nitrophenyl)thiophen-2-yl]prop-2-enamide] | 106.367
20 | C=CC(=O)N(C)c1ccc(C#N)c(Cl)c1 [3-G05, N-(3-chloro-4-cyanophenyl)-N-methylprop-2-enamide] | 92.2943
21 | CC1=CSC(=C(C#N)C(=O)NCc2ccco2)N1c1ccccc1 [8-D13, 2-cyano-N-[(furan-2-yl)methyl]-2-(4-methyl-3-phenyl-2,3-dihydro-1,3-thiazol-2-ylidene)acetamide] | 108.216
22 | COc1ccc(C(NC(=O)CCl)C2CC2)cc1 (stereo not shown) [4-K19, 2-chloro-N-[cyclopropyl(4-methoxyphenyl)methyl]acetamide] | 108.242
23 | COc1ccc(Cc2cnc(NC(=O)CCl)s2)cc1 [4-F17, 2-chloro-N-{5-[(4-methoxyphenyl)methyl]-1,3-thiazol-2-yl}acetamide] | 146.737
24 | O=C(CCl)NC(Cc1cccc(O)c1)c1ccccc1 (stereo not shown) [7-N20, 2-chloro-N-[2-(3-hydroxyphenyl)-1-phenylethyl]acetamide] | 100.157
25 | Cc1ccc(NC(=O)C(C#N)=Cc2ccccc2OC(F)F)cc1 [9-D05, 2-cyano-3-[2-(difluoromethoxy)phenyl]-N-(4-methylphenyl)prop-2-enamide] | 90.1873
26 | C=CC(=O)N1CCCC1c1cccc(C)c1 (stereo not shown) [1-N11, 1-[2-(3-methylphenyl)pyrrolidin-1-yl]prop-2-en-1-one] | 92.1319
27 | C=CC(=O)Nc1cc(SCc2ccccc2C)ncn1 [1-F08, N-(6-{[(2-methylphenyl)methyl]sulfanyl}pyrimidin-4-yl)prop-2-enamide] | 91.0769
28 | C=CC(=O)NCc1ccc(C(=O)N2CCCOC(C)(C)C2)cc1 [3-N06, N-{[4-(2,2-dimethyl-1,4-oxazepane-4-carbonyl)phenyl]methyl}prop-2-enamide] | 118.764
